According to the supplement of paper PMC3334620:
Whole data set: some 33,000 sequences, median “E-score (-0.5 to 0.5)” near -0.011, cut for the highest 2% near 0.28. Some of the results follow.

Molecular target: T1, Gcr1 (UniProt P07261)
T1 sequence: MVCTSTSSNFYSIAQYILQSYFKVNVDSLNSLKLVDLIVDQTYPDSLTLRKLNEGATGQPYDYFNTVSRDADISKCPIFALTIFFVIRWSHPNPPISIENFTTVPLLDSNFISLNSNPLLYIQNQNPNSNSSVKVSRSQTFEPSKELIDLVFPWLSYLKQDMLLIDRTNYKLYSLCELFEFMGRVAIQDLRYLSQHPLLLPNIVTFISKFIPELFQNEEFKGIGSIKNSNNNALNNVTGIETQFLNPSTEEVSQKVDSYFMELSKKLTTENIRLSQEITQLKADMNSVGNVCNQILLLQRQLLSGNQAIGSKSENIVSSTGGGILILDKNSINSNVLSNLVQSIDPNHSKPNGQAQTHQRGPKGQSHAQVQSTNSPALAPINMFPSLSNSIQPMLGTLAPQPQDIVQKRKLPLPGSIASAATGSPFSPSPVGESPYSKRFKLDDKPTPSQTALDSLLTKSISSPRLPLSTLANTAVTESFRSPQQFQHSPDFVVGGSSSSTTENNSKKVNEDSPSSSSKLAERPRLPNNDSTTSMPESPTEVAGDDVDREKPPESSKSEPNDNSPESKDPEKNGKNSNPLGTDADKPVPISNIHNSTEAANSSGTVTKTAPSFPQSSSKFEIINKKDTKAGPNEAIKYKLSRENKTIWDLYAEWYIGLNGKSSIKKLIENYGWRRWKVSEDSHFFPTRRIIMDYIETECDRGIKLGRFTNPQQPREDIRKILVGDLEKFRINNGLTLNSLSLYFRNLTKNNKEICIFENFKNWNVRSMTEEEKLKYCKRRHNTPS
Assay: PBM E-score (8-mer binding enrichment) (E-score (-0.5 to 0.5)); higher = stronger / more preferred TF binding; most listed sequences are background and not binding sites
Details: protein concentration: 100 nM; construct: GST-full length
In short: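 Full-length yeast transcription factors or their DNA-binding domains, GST-tagged and expressed with PURExpress, were applied at about 100-200 nM to universal all-10-mer Agilent arrays. These arrays had been made double-stranded by primer extension on fresh or once-stripped slides. Detection used fluorescent anti-GST, normalisation used masliner, and E-scores for ungapped eight-base words pooled with reverse complements came from the Universal PBM Analysis Suite.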

| Sequence | PBM E-score |
| --- | --- |
| AGAGGGTG | 0.196 |
| GCCGCGTA | 0.143 |
| AACTGGTC | 0.0802 |
| AGTAGGCC | -0.0485 |
| CTAGCGGC | -0.0817 |
| GTAGCTAA | -0.0197 |
| CAGGCAGA | -0.0141 |
| CATGCCTC | -0.101 |
| AGCCTTCG | -0.213 |
| CATGCTCA | -0.194 |
| AAGCCTAT | 0.114 |
| GAAGCGAC | -0.0968 |
| ATCGTGGA | 0.148 |
| CGAGGATA | 0.0495 |
| CAACCACG | -0.048 |
| GGTTATAA | -0.0273 |
| CTATGCCA | -0.0421 |
| GCTAAACA | 0.0775 |
| CTGCAGGC | -0.0688 |
| AAAGGCGT | 0.0874 |
| GCCTCAAA | -0.0306 |
| AACCAAGG | -0.00121 |
| AATGGGGT | 0.0769 |
| CTGGAGCC | 0.235 |
| ACCCCGGT | -0.185 |

| Sequence | PBM E-score |
| --- | --- |
| ATCCTAGG | 0.0587 |
| CCTACAGA | -0.15 |
| AGCGAGAT | -0.00699 |
| CGAGCACG | -0.175 |
| GCAAACCA | -0.0205 |
| CTTAAGGC | -0.071 |
| ATCGCTTC | -0.0186 |
| GCCGAGGC | -0.181 |
| ATTTGGGC | 0.103 |
| CGTAGTTC | -0.0582 |
| GGTTAAAC | -0.0126 |
| ATCGTGCC | 0.0295 |
| TCCAACCA | 0.155 |
| ATCTAGGG | -0.0438 |
| GAGTGAAA | -0.135 |
| GACGTCTC | -0.0327 |
| ATTTAGGC | 0.0811 |
| ACCAAAAA | 0.205 |
| AGCACACC | -0.188 |
| AACCAAAC | 0.0542 |
| AGGCTCCC | 0.24 |
| CAGATCTC | -0.0934 |
| CCTTGCAC | 0.0164 |
| CTGAGCAA | -0.0295 |
| CTGAAAAG | 0.119 |

| Sequence | PBM E-score |
| --- | --- |
| CAGGACCA | -0.17 |
| ATCCATGA | -0.00466 |
| CCGTGGCC | -0.227 |
| AGCCGAAG | -0.0728 |
| GAGCGTAC | -0.0546 |
| ATTGCCAC | -0.129 |
| AGCGATTA | 0.0479 |
| GAACGTTC | -0.127 |
| TGCCTCAA | 0.00217 |
| AGACTCCC | -0.0302 |
| CCCTTCGG | 0.119 |
| AAGGCTCG | -0.219 |
| CAACCTGC | -0.133 |
| ACTACCGC | -0.0353 |
| ACCGCGGC | 0.143 |
| TCACGAAA | -0.0274 |
| ATCTAGGC | 0.0228 |
| CGCCGGCC | -0.207 |
| ACGCTTCG | -0.0461 |
| AGACTCCT | 0.147 |
| CACTCCAC | 0.0894 |
| GCAGTAGA | 0.0267 |
| CTGTGTCA | 0.0406 |
| AGATGCCC | 0.108 |
| AAGCAAAG | -0.0788 |

| Sequence | PBM E-score |
| --- | --- |
| CGTCTTTC | -0.00721 |
| CGACGAAC | -0.0871 |
| ACTTTCTG | -0.176 |
| CGCTTATA | -0.0849 |
| CACCTCTG | 0.108 |
| ACGACCCT | -0.155 |
| AGGTGGTA | 0.0389 |
| GCGAATGA | 0.0568 |
| ACGTTTCT | -0.0839 |
| AATCCAAC | 0.112 |
| CTCTCCAC | -0.136 |
| CGCGATCA | -0.0515 |
| CCTATTAC | 0.132 |
| CGATTGTA | 0.0357 |
| ATTGCCTC | -0.243 |
| CAAGGGTA | -0.122 |
| CATACACC | 0.0242 |
| TATGTTCA | -0.0466 |
| AGGCTGCC | 0.382 |
| AACGTTGA | -0.239 |
| TGCACCAA | -0.133 |
| AACACACG | 0.106 |
| GCAAGGCA | -0.25 |
| GGAAACAC | 0.168 |
| ACGTGGCT | 0.0763 |

| Sequence | PBM E-score |
| --- | --- |
| AGAGTTGC | -0.0857 |
| GAAAACTA | 0.0352 |
| ATATGGCC | -0.0751 |
| AGCTAAAT | 0.0641 |
| CGGAGAGC | -0.0626 |
| CGGGCGTC | 0.307 |
| CTCGATTA | 0.151 |
| ACATTGTA | 0.036 |
| GGCCACAC | 0.0378 |
| TCGTTGCA | -0.108 |
| CACAGGCG | -0.00662 |
| AAGCCAAT | 0.0759 |
| TAACAAAA | 0.063 |
| GCAGATGC | -0.0735 |
| GTCCGCCA | -0.0551 |
| TTGCTAAA | -0.164 |
| AATGCTTG | -0.143 |
| AGCAGTTG | -0.00851 |
| AAACGTGA | -0.0568 |
| GCTCCCAA | 0.0938 |
| ACTGGTAA | 0.0902 |
| GCTCGCCA | -0.0132 |
| CATTTCAG | -0.0103 |
| GCCGCAGA | -0.0297 |
| GATACGAA | 0.156 |

| Sequence | PBM E-score |
| --- | --- |
| ACAGTACG | -0.074 |
| ACCCGGCA | 0.125 |
| GACGCCGC | 0.37 |
| CCGCAATA | 0.00375 |
| CAACAAAG | -0.114 |
| ACTCTATC | -0.12 |
| GGTGCTTA | 0.259 |
| ATACGTTC | -0.246 |
| CAAATCGA | -0.0882 |
| AAGGTGGC | -0.0205 |
| CTATGAAG | -0.0783 |
| GCGTGAAC | 0.00311 |
| CGTACGAG | -0.103 |
| CGTTTGAA | -0.0917 |
| ATCGGGCG | 0.0155 |
| CGATGAGC | -0.248 |
| AATAGTAC | -0.149 |
| ATGCGCAT | -0.0285 |
| CGGCGCAC | -0.178 |
| CCGAATGA | -0.0709 |
| AGCCTCAC | 0.0143 |
| ACGGGGGG | -0.182 |
| AATATTCC | 0.131 |
| AATGAACC | -0.134 |
| ACCACCGT | -0.0184 |

| Sequence | PBM E-score |
| --- | --- |
| ATCTCCTC | 0.0889 |
| CTACGCTC | -0.213 |
| AGTAGGGA | 0.123 |
| GCTCTGTA | -0.00944 |
| AGTAAAAA | 0.0466 |
| AAGGGTTA | -0.133 |
| AAATAATT | 0.101 |
| GCGCCCCC | 0.258 |
| CCGTCGAG | -0.149 |
| ATTTTGCG | 0.074 |
| ATGTTTAA | -0.129 |
| AGAGAACG | -0.111 |
| ATACTGTC | -0.136 |
| CTCCTGCA | 0.0118 |
| AGGCGCGC | 0.16 |
| AGAAGTCA | 0.241 |
| CGTGCCAC | -0.141 |
| GCTTTCAA | 0.152 |
| CGTGTTAA | -0.033 |
| GGCACACA | -0.078 |
| CATCCGAG | -0.0298 |
| CGGCTACG | -0.0174 |
